Results from publication PMC13083723 (Patterns, 2026).
Screen size: about 5,400 compounds; about 190 (3.5%) showed an effect of 50% or more. The list shows a part of the results. Positions of bridges follow the written chain, without caps; N, C: chain ends. Non-standard residues stand in square brackets, D forms with d. Residues, ends and D or L forms follow the SMILES beside them. ξ: configuration not given here. ξThr(3R) = C[C@@H](O)C(N)C(=O)O; Orn = NCCC[C@H](N)C(=O)O; Mpa = O=C(O)CCS

Each compound was assayed on Vero-E6 (assay: primary screen, phospholipidosis by LipidTOX staining; higher = more effect of the substance). Settings: 10 µM.
Method in brief: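 Single-concentration screen at 10 μM, with DMSO 0.1 v/v % and amiodarone 10 μM as controls. Read-out is LipidTOX Red phospholipid staining, which tolerates aldehyde fixation, in Vero-E6 cells.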

Structure (SMILES) | result_ITMP
O=C(NC1CCN(CCc2c[nH]c3ccccc23)CC1)c1ccccc1 | 6.62%
COc1cc(OC)nc(O[C@H](C(=O)O)C(OC)(c2ccccc2)c2ccccc2)n1 | -0.06%
N[C@@]1(C(=O)O)CS(=O)(=O)[C@H]2[C@H](C(=O)O)[C@H]21 | -3.92%
NCCCNCCSP(=O)(O)O | -10.5%
O=C([O-])c1nc(=O)[nH]c(=O)[nH]1 | -2.23%
Cc1ccc2c(=O)c3cccc(CC(=O)O)c3oc2c1C | -3.38%
CCCCc1ccc(O)cc1O | -3.79%
c1ccc2nc(C3=NCCN3)ccc2c1 | -1.04%
Nc1sc2c(c1C(=O)c1ccc(Cl)cc1)CCCC2 | -6.93%
CN(C)CCn1cc(S(=O)(=O)c2cccc(F)c2)c2cccnc21 | -1.84%
CN1CCN(c2ccc3ccccc3n2)CC1 | -1.59%
CC(C)(C)c1ccc(C(O)CCCN2CCC(C(O)(c3ccccc3)c3ccccc3)CC2)cc1 (stereo not shown) | -4.73%
O=[N+]([O-])c1ccc(O)c([N+](=O)[O-])c1 | -4.21%
Cc1oc2nc3c(c(NC(=O)CN4CCCC4=O)c2c1C)CCCC3 | -2.52%
COc1cc(/C=C/c2ccc(OC)cc2OC)cc(OC)c1 | -1.18%
CCCCN1CCCCC1C(=O)Nc1c(C)cccc1C (stereo not shown) | 12.6%
CO/N=C1\C[C@]2(C[C@@H]3C[C@@H](C/C=C(\C)C[C@@H](C)/C=C/C=C4\CO[C@@H]5[C@H](O)C(C)=C[C@@H](C(=O)O3)[C@]45O)O2)O[C@H](/C(C)=C/C(C)C)[C@H]1C | 7.86%
CCOC(=O)NNc1nncc2ccccc12 | -1.79%
S=c1[nH]c2ccccc2s1 | -6.09%
COc1cc(CC2NCCc3cc(O)c(O)cc32)cc(OC)c1OC (stereo not shown) | -7.76%

Structure (SMILES) | result_ITMP
COc1cc(N2CCC(N3CCN(C)CC3)CC2)ccc1Nc1ncnc(Nc2ccccc2S(=O)(=O)C(C)C)n1 | 44.8%
CCN(CCO)CCCC(C)Nc1ccnc2cc(Cl)ccc12 (stereo not shown) | 1.54%
Cc1nc(Nc2ncc(C(=O)Nc3c(C)cccc3Cl)s2)cc(N2CCN(CCO)CC2)n1 | 18%
C=C(C)C1CC=C(CO)CC1 (stereo not shown) | -2.64%
CON | -3.8%
NC(=O)c1cn([C@@H]2O[C@H](CO)[C@@H](O)[C@H]2O)c2ncnc(N)c2c1=O | -2.7%
CCN1CCN(Cc2ccc(-c3cc4c(N[C@H](C)c5ccccc5)ncnc4[nH]3)cc2)CC1 | 21.2%
CCOC(=O)c1c(CSc2ccccc2)n(C)c2cc(Br)c(O)c(CN(C)C)c12 | 13.1%
CN1CCCCC1CCN1c2ccccc2Sc2ccc(S(C)=O)cc21 (stereo not shown) | -0.95%
O=C(NC1CCN(Cc2ccccc2)CC1)c1ccc(I)cc1 | 1.54%
Cn1cc(-c2cc(Oc3cc(F)c(NC(=O)C4(C(=O)Nc5ccccc5)CC4)cc3F)ccn2)cn1 | -9.64%
O=C1C=CC(=O)C2=C1C1c3ccccc3C2c2ccccc21 | -1.69%
Cc1cc(Nc2nc(N[C@@H](C)c3ccc(F)cc3)c(C#N)cc2F)n[nH]1 | 32.8%
N#Cc1ccncn1 | -3.1%
CC(/C=C/C(=O)NO)=C\[C@@H](C)C(=O)c1ccc(N(C)C)cc1 | -8.84%
Clc1ccc(N2CCN(Cc3c[nH]c4ncccc34)CC2)cc1 | 1.68%
Cc1nc(-c2ccc(OCC(C)C)c(C#N)c2)sc1C(=O)O | 4.49%
CCn1cnc2c(Nc3cccc(Cl)c3)nc(N[C@@H]3CCCC[C@@H]3N)nc21 | 23.1%
O=c1ccn([C@@H]2O[C@H](COP(=O)(O)OP(=O)(O)OP(=O)(O)O)[C@@H](O)[C@H]2O)c(=O)[nH]1 | -9.08%
C[C@@H](O)[C@H]1C(=O)N2C(C(=O)[O-])=C(SC3Cn4cnc[n+]4C3)[C@H](C)[C@H]12 (stereo partly shown) | -0.41%

Structure (SMILES) | result_ITMP
CN(C)c1ccc(C(=C2C=CC(=[N+](C)C)C=C2)c2ccc(N(C)C)cc2)cc1 | -9.2%
O=C(OCC(COC(=O)c1cccnc1)(COC(=O)c1cccnc1)COC(=O)c1cccnc1)c1cccnc1 | -4.07%
CC(C(=O)O)c1ccc2c(c1)CC(=O)c1ccccc1S2 (stereo not shown) | -6.91%
Oc1cc2c(cc1O)[C@@H]1c3ccc(O)c(O)c3OC[C@]1(O)C2 | -3.36%
CC(=O)N[C@H]1[C@@H](OC(C)C)O[C@H](COC(C)=O)[C@@H](OC(C)=O)[C@@H]1OC(C)=O | -6.26%
CCOc1ccc(C[C@H]2NC(=O)CCSSC[C@@H](C(=O)N3CCC[C@H]3C(=O)N[C@@H](CCCN)C(=O)NCC(N)=O)NC(=O)[C@H](CC(N)=O)NC(=O)[C@H]([C@@H](C)O)NC(=O)[C@H]([C@@H](C)CC)NC2=O)cc1 ([Mpa][dY](Et)I[ξThr(3R)]NCP[Orn]G-NH2; disulfide 1-6) | -2.97%
Cc1nc(-c2cccnc2)sc1C(=O)Nc1ccccc1-c1cn2c(CN3CCOCC3)csc2n1 | -7.93%
CC(=O)[C@]1(N)Cc2c(O)c3c(c(O)c2[C@@H](O[C@H]2C[C@H](O)[C@H](O)CO2)C1)C(=O)c1ccccc1C3=O | -1.29%
CC(C)(CO)[C@@H](O)C(=O)NCCC(=O)[O-] | 1.43%
O=c1ccc2ccccc2o1 | 1.2%
O=C(CCCN1CCC2(CC1)C(=O)N(Cc1cccc(F)c1)CN2c1ccccc1)c1ccc(F)cc1 | 89%
O=C(O)COc1ccc(/C=C2\SC(=O)NC2=O)cc1 | 4.17%
NCCOB(c1ccccc1)c1ccccc1 | -1.28%
COc1ccccc1N1CCN(CCCCN2C(=O)CCC2=O)CC1 | 6.62%
CN[C@@H]1[C@H](O)[C@H](NC)[C@H]2O[C@@]3(O)C(=O)C[C@@H](C)O[C@H]3O[C@@H]2[C@H]1O | -2.31%
CN(C)CCCN1c2ccccc2Sc2ccc(Cl)cc21 | 104%
O=C([O-])c1cc(/N=N/c2ccc(O)c(C(=O)[O-])c2)ccc1O | -2.29%
CCN(CC)C(=O)c1ccc(C2=CC3(CCNCC3)Oc3cccc(O)c32)cc1 | -2.96%
